According to paper PMC12820563:
This is one part of the list. The list includes weakly bound sequences.

Molecular target: T1, MBP-FoxP3dN (UniProt Q99JB6)
T1 sequence: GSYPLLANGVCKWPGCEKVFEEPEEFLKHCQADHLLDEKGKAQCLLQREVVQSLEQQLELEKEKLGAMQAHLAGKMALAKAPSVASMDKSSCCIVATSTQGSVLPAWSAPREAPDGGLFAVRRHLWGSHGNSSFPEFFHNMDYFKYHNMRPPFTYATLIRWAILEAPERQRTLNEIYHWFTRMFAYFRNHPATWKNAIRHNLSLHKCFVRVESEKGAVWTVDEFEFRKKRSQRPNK
Assay: PD-seq (MBP pull-down with sequencing)
Settings: 20 mM Tris-HCl pH 7.5, 100 mM NaCl, 1.5 mM MgCl2, 0.4 uM protein, 0.1 uM dsDNA library, 30 min, room temperature, amylose pull-down; high values mean tight binding; double strand, one strand shown

| Sequence | binding signal (RPM ratio (pull-down/input)) |
| --- | --- |
| GATGATTGTTCTCCCAGCTGATGAATTGCCGTGCTCGAGTAAACAAATTTTCCTAATCTTTCTGTTCAAGCGCCATCTAC | 0.634 |
| GATGATTGTTCTCCCAGCTGATGAATTCGGTGGCTCGAGTAAACAAATTTTCCTAATCTTTCTGTTCAAGCGCCATCTAC | 0.613 |
| GATGATTGTTCTCCCAGCTGATGAATTACCAGCTTCGAGTAAACAAATTTTCCTAATCTTTCTGTTCAAGCGCCATCTAC | 0.3 |
| GATGATTGTTCTCCCAGCTGATGAATTGCTGGTATCGAGTAAACAAATTTTCCTAATCTTTCTGTTCAAGCGCCATCTAC | 0.915 |
| GATGATTGTTCTCCCAGCTGATGAATTTCGATTTTCGAGTAAACAAATTTTCCTAATCTTTCTGTTCAAGCGCCATCTAC | 1.11 |
| GATGATTGTTCTCCCAGCTGATGAATTGTCTGCCTCGAGTAAACAAATTTTCCTAATCTTTCTGTTCAAGCGCCATCTAC | 0.506 |
| GATGATTGTTCTCCCAGCTGATGAATTTGTCGTGTCGAGTAAACAAATTTTCCTAATCTTTCTGTTCAAGCGCCATCTAC | 5.6 |
| GATGATTGTTCTCCCAGCTGATGAATTTCAGGTCTCGAGTAAACAAATTTTCCTAATCTTTCTGTTCAAGCGCCATCTAC | 0.426 |
| GATGATTGTTCTCCCAGCTGATGAATTAATGATGTCGAGTAAACAAATTTTCCTAATCTTTCTGTTCAAGCGCCATCTAC | 1.06 |
| GATGATTGTTCTCCCAGCTGATGAATTCCTCTCGTCGAGTAAACAAATTTTCCTAATCTTTCTGTTCAAGCGCCATCTAC | 0.225 |
| GATGATTGTTCTCCCAGCTGATGAATTCAAGGAGTCGAGTAAACAAATTTTCCTAATCTTTCTGTTCAAGCGCCATCTAC | 0.19 |
| GATGATTGTTCTCCCAGCTGATGAATTCCGCTAATCGAGTAAACAAATTTTCCTAATCTTTCTGTTCAAGCGCCATCTAC | 0.316 |
| GATGATTGTTCTCCCAGCTGATGAATTACGACTTTCGAGTAAACAAATTTTCCTAATCTTTCTGTTCAAGCGCCATCTAC | 1.33 |
| GATGATTGTTCTCCCAGCTGATGAATTAACACTTTCGAGTAAACAAATTTTCCTAATCTTTCTGTTCAAGCGCCATCTAC | 0.552 |
| GATGATTGTTCTCCCAGCTGATGAATTGGTAGGCTCGAGTAAACAAATTTTCCTAATCTTTCTGTTCAAGCGCCATCTAC | 0.509 |
| GATGATTGTTCTCCCAGCTGATGAATTGTAGAAGTCGAGTAAACAAATTTTCCTAATCTTTCTGTTCAAGCGCCATCTAC | 0.237 |
| GATGATTGTTCTCCCAGCTGATGAATTTTTGTGTTCGAGTAAACAAATTTTCCTAATCTTTCTGTTCAAGCGCCATCTAC | 1.04 |
| GATGATTGTTCTCCCAGCTGATGAATTCGGGTCCTCGAGTAAACAAATTTTCCTAATCTTTCTGTTCAAGCGCCATCTAC | 0.552 |
| GATGATTGTTCTCCCAGCTGATGAATTAAGTCCCTCGAGTAAACAAATTTTCCTAATCTTTCTGTTCAAGCGCCATCTAC | 0.431 |
| GATGATTGTTCTCCCAGCTGATGAATTCCGGAAATCGAGTAAACAAATTTTCCTAATCTTTCTGTTCAAGCGCCATCTAC | 0.237 |

| Sequence | binding signal (RPM ratio (pull-down/input)) |
| --- | --- |
| GATGATTGTTCTCCCAGCTGATGAATTGTAAGCTTCGAGTAAACAAATTTTCCTAATCTTTCTGTTCAAGCGCCATCTAC | 0.684 |
| GATGATTGTTCTCCCAGCTGATGAATTGGGTTTTTCGAGTAAACAAATTTTCCTAATCTTTCTGTTCAAGCGCCATCTAC | 1.13 |
| GATGATTGTTCTCCCAGCTGATGAATTAATCTTATCGAGTAAACAAATTTTCCTAATCTTTCTGTTCAAGCGCCATCTAC | 0.343 |
| GATGATTGTTCTCCCAGCTGATGAATTACCTCACTCGAGTAAACAAATTTTCCTAATCTTTCTGTTCAAGCGCCATCTAC | 0.335 |
| GATGATTGTTCTCCCAGCTGATGAATTAGGCCATTCGAGTAAACAAATTTTCCTAATCTTTCTGTTCAAGCGCCATCTAC | 3.58 |
| GATGATTGTTCTCCCAGCTGATGAATTCACCTTCTCGAGTAAACAAATTTTCCTAATCTTTCTGTTCAAGCGCCATCTAC | 0.345 |
| GATGATTGTTCTCCCAGCTGATGAATTGTATCGCTCGAGTAAACAAATTTTCCTAATCTTTCTGTTCAAGCGCCATCTAC | 1.16 |
| GATGATTGTTCTCCCAGCTGATGAATTCAATTTTTCGAGTAAACAAATTTTCCTAATCTTTCTGTTCAAGCGCCATCTAC | 0.853 |
| GATGATTGTTCTCCCAGCTGATGAATTCTGGAAGTCGAGTAAACAAATTTTCCTAATCTTTCTGTTCAAGCGCCATCTAC | 0.156 |
| GATGATTGTTCTCCCAGCTGATGAATTGACAGTCTCGAGTAAACAAATTTTCCTAATCTTTCTGTTCAAGCGCCATCTAC | 0.505 |
| GATGATTGTTCTCCCAGCTGATGAATTTGCCCAGTCGAGTAAACAAATTTTCCTAATCTTTCTGTTCAAGCGCCATCTAC | 0.28 |
| GATGATTGTTCTCCCAGCTGATGAATTGGTTCGGTCGAGTAAACAAATTTTCCTAATCTTTCTGTTCAAGCGCCATCTAC | 0.261 |
| GATGATTGTTCTCCCAGCTGATGAATTGTCCCTCTCGAGTAAACAAATTTTCCTAATCTTTCTGTTCAAGCGCCATCTAC | 0.433 |
| GATGATTGTTCTCCCAGCTGATGAATTATTCGTTTCGAGTAAACAAATTTTCCTAATCTTTCTGTTCAAGCGCCATCTAC | 0.39 |
| GATGATTGTTCTCCCAGCTGATGAATTTAGTCCCTCGAGTAAACAAATTTTCCTAATCTTTCTGTTCAAGCGCCATCTAC | 0.694 |
| GATGATTGTTCTCCCAGCTGATGAATTTCTTCCTTCGAGTAAACAAATTTTCCTAATCTTTCTGTTCAAGCGCCATCTAC | 0.237 |
| GATGATTGTTCTCCCAGCTGATGAATTTATTAAATCGAGTAAACAAATTTTCCTAATCTTTCTGTTCAAGCGCCATCTAC | 0.333 |
| GATGATTGTTCTCCCAGCTGATGAATTTCCTCACTCGAGTAAACAAATTTTCCTAATCTTTCTGTTCAAGCGCCATCTAC | 0.285 |
| GATGATTGTTCTCCCAGCTGATGAATTGGGCAATTCGAGTAAACAAATTTTCCTAATCTTTCTGTTCAAGCGCCATCTAC | 3.15 |
| GATGATTGTTCTCCCAGCTGATGAATTTGAATGCTCGAGTAAACAAATTTTCCTAATCTTTCTGTTCAAGCGCCATCTAC | 1.31 |
